Laboratory results: patent US8877800B2, “Kappa-opiate agonists for the treatment of diarrhea-predominant irritable bowel syndrome” (Tioga Pharmaceuticals, Inc., priority 2007, dated 2014)

System: patients with IBS
Test: Example 1: randomized, double-blind, placebo controlled 4-week on-demand asimadoline study in participants with IBS
Conditions: IBS-C; on-demand 0.5 mg p.r.n. up to 1.0 mg q.i.d., 4 weeks

CN(C(=O)C(c1ccccc1)c1ccccc1)[C@H](CN1CC[C@H](O)C1)c1ccccc1.Cl [Asimadoline, N-[(1S)-2-[(3S)-3-hydroxypyrrolidin-1-yl]-1-phenylethyl]-N-methyl-2,2-diphenylacetamide, hydrochloride]
Δ mean # stools, treatment compared to baseline: −0.1 ± 0.1
